According to PubChem BioAssay AID1508623 (National Center for Advancing Translational Sciences (NCATS), 2021):
In all, about 48,000 compounds went through this assay and about 450 (0.94%) were called active. Inconclusive results (about 19%) are left out. The call rests on the fitted dose curve; in most records, active means well fitted inhibition curve with a large enough effect; inconclusive means small, poorly fitted or top-dose-only effect; inactive means no such curve, though single readings can be large or run the other way. This is one part of the list.

Test: Primary qHTS for Identification of Small Molecule Inhibitors of Huntingtin Promoter Activity; further: nearly all actives have a fitted effect of over 50% in size
Conditions: HEK293 HTT promoter firefly luciferase reporter (activity 0% = vehicle and -100% = no light), 24 h; series mostly up to 57.5 µM; activity change, negative = inhibition: at the top concentration
Procedure, shortened: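 HEK293 luciferase promoter-reporter cells (2,500/well) plated 24 h, then compounds added at up to 57.5 uM final for 24 h at 37 °C. Firefly luminescence by Dual-Glo, normalized to vehicle (0%) and zero RLU (-100%).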

Activity change, negative = inhibition, inactive:
COc1ccccc1CNC(=O)CSc1ncc2c(n1)-c1cc(Cl)ccc1N(Cc1ccccc1)S2(=O)=O -9.28%, CCOc1ccc(-c2nc(SCC(=O)NCCCOC)c(-c3ccccc3)[nH]2)cc1 24%, COc1ccccc1Oc1c(NS(=O)(=O)c2ccc(C(C)(C)C)cc2)nc(-c2ncccn2)nc1OCCO -8.67%, CSc1ccc(CC2C(=O)Nc3ccccc32)cc1 (stereo unspecified) -8.02%, O=C(Cc1ccccc1F)N1CCC(c2nc3c(nnn3Cc3ccc(F)cc3)c(=O)[nH]2)CC1 -22.7%, O=C(CS(=O)(=O)c1cccc2nsnc12)Nc1cc(F)ccc1F 2.11%, N#C/C(=C\c1ccccc1)C(=O)Nc1sc2c(c1C(N)=O)CCC2 -4.63%, CCc1ccccc1NC(=O)C1COc2ccccc2C1 (stereo unspecified) -8.54%, Cn1cnc(S(=O)(=O)N2CCC(C(=O)N3CCN(c4ccc(Cl)cc4)CC3)CC2)c1 -25.2%, N[C@H](C(=O)O)[C@@H](O)c1ccc(O)c(O)c1 5.27%, COc1cccc(C2C(C(=O)Nc3ccccc3)=C(C)Nc3nnnn32)c1OC (stereo unspecified) -8.83%, Cc1cc(C)cc(OCC(=O)Nc2ccc(Cl)c(-c3nc4ncccc4o3)c2)c1 -20.8%, N#Cc1ccc(OC(=O)c2cc(-c3ccc4c(c3)OCCO4)on2)cc1 45.1%, CC(=O)Nc1ccc(-n2c(CCC(=O)O)ccc2-c2ccc(C)cc2)cc1 -24.8%, CCOC(=O)c1oc2ccc(S(=O)(=O)n3nc(-c4cc(OC)cc(OC)c4)cc3N)cc2c1C -25.6%, Cc1ccc(NC(=O)CSc2nc3c(oc4ccccc43)c(=O)n2Cc2ccco2)cc1 -11.2%, CCCn1c(=O)c2sccc2n2c(CCCC(=O)N3CCN(c4cccc(C)c4C)CC3)nnc12 -7.88%, CC(=O)N(Cc1cccnc1)c1nc2c(C)cccc2s1 -19.1%, Cn1cc(-c2cc3n(n2)CCC(=O)N3CCCC(=O)Nc2ccc(F)cc2F)c2ccccc21 0%, COc1ccc(CCn2c(=O)c3cccnc3n(CC(=O)Nc3cccc(C)c3)c2=O)cc1OC 10.4%, CCOC(=O)C1CCN(C(=O)Cn2nc(C)n3c(cc4cc(C)ccc43)c2=O)CC1 -9.48%, Cc1cc2nc(-c3ccc(Br)cc3)cc(C(F)(F)F)n2n1 -15.6%, CCc1ccc(-c2cn3c(n2)sc2cc(C(=O)NCC(C)c4ccccc4)ccc23)cc1 (stereo unspecified) -7.4%, Cc1nnc2c(N3CCN(c4ccccc4)CC3)nc3ccc(C(=O)c4ccccc4)cc3n12 -7.51%, O=C(C1CC1)N1CCc2cc(Br)cc(S(=O)(=O)N3CCN(c4ccccc4)CC3)c21 -6.59%, OCc1cccnc1 -4.22%, Cn1c(=O)c2sccc2n2c(CCC(=O)N3CCN(c4cccc(Cl)c4)CC3)nnc12 -10.6%, Cc1c(CNCCc2ccc(S(N)(=O)=O)cc2)c(C(=O)O)c(C)n1Cc1ccc(Cl)cc1 7.65%, CCCCC(=O)Nc1nnc(S(=O)(=O)N(CC)c2cc(C)cc(C)c2)s1 -10.4%, CCCCOC(=O)c1ccc(Nc2nc3ccccc3c3nnc(C)n23)cc1 6.12%, CN(C(=O)CSc1nc2ccccc2n1CC(=O)N(C)c1ccc(F)cc1)c1ccccc1 -6.76%, CCc1ccccc1NC(=O)Cn1nnc(C(=O)NCc2cccs2)c1N -21.9%, O=C(CSc1nccn1Cc1ccc(F)cc1)Nc1ccc2c(c1)OCO2 -31.4%, COc1ccc(CNCCSc2nnnn2-c2ccccc2)c(OC)c1 -14.8%, Cc1nc(-c2cccc(F)c2)sc1CCNC(=O)c1ccc(F)c(F)c1 -29.2%, COc1ccc(Cn2ccnc2SCC(=O)NCc2ccccc2)cc1 -34.2%, CCC1CCCCN1C(=O)c1nn(-c2ccc(C)cc2)c(=O)c2c1c1ccccc1n2C (stereo unspecified) 2.05%, CCOc1ccc(CCNC(=O)c2cnc3sc(N4CCOCC4)nn3c2=O)cc1 2.36%, COc1ccccc1-c1ccnc2[nH]n(-c3ccccc3)c(=O)c12 -11.2%, Cc1cccc(N2CCN(c3nc4ccccc4c(=O)n3-c3ccc(Cl)cc3)CC2)c1C -26.8%, CCc1cccc(C)c1NC(=O)Cn1c(=O)cc(C(F)(F)F)c2c(C)nn(C)c21 1.73%, Cc1ccc(N2CCN(C(=O)c3ccc4c(Cl)c5c(nc4c3)CCCC5)CC2)c(C)c1 -6.14%, O=C(Nc1ccc(F)cc1F)c1c2c(nc3ccccc13)C(=O)N(C1CCCCC1)C2 -16.7%, O=C(NCc1cccs1)C1CCN(C(=O)N2CCOc3ccccc32)CC1 -12.8%, O=C(Nc1c(-c2ccccc2)nc2ccccn12)c1ccc(Br)cc1 -10.7%, O=C(CSc1nc2c([nH]c3ccccc32)c(=O)n1-c1ccccc1)c1ccccc1 0.29%, CCOC(=O)c1cc(OC(=O)c2ccc(Cl)cc2)n(-c2ccccc2)n1 2.85%, COc1ccc(C2C(=O)N(C3CCCCC3)CC(=O)N2Cc2ccccc2Cl)cc1OC (stereo unspecified) 3.62%, COc1ccc(-c2nn(CC(=O)Nc3ccccc3F)c3c2cnc2ccc(F)cc23)cc1 39.7%, Cc1ccc(-c2nc(S(=O)(=O)c3ccc(C)cc3)c(N3CCN(c4ccccc4)CC3)o2)cc1 -10.7%, Cc1ccc(C)c(N2CCN(CCCNC(=O)Cn3ncc4c([nH]c5ccccc54)c3=O)CC2)c1 -1.79%, CCN(CC)CCNC(=O)c1cc(Cl)c(N)cc1OC 6.68%, COc1ccc(CNC(=O)Cn2ncn3nc(-c4cccs4)cc3c2=O)cc1 -1.76%, COc1ccc(N2CCN(S(=O)(=O)CCNC(=O)c3ccc(C(F)(F)F)cc3)CC2)cc1 -25.5%, CCCCCn1c(=O)[nH]c2cc(C(=O)NCc3ccc(OC)cc3)ccc2c1=O -9.83%, CC(=O)NCCC(=O)N[C@@H](CCC(N)=O)C(=O)N[C@@H](CO)C(=O)N[C@@H](CCC(N)=O)C(=O)N[C@@H](CCC(N)=O)C(=O)N[C@H](C(=O)N[C@@H](Cc1ccccc1)C(=O)N[C@]1(C)CCCCCCC=CCCC[C@@](C)(C(=O)N[C@@H](CCC(N)=O)C(=O)N[C@@H](CC(N)=O)C(N)=O)NC(=O)[C@H](CC(C)C)NC(=O)[C@H](CC(C)C)NC(=O)[C@@H](CCCNC(=N)N)NC(=O)[C@H](Cc2c[nH]c3ccccc23)NC(=O)[C@H](CC(C)C)NC(=O)[C@H](CC(N)=O)NC1=O)[C@H](C)O -19.2%, CCCC(=O)O[C@]1(C(=O)CCl)[C@@H](C)C[C@H]2[C@@H]3CCC4=CC(=O)C=C[C@]4(C)[C@@]3(F)C(=O)C[C@@]21C -17%, CCOC(=O)c1ccc(NC(=O)CCS(=O)(=O)c2ccc3c(c2)oc(=O)n3C)cc1 -9.15%, CCCCN(CCCC)CCNC(=O)CN1C(=O)CSc2ccc(S(=O)(=O)N3CCCCC3)cc21 -13%, Cc1cccc(CN2C(=O)CC(c3ccc(Cl)cc3)c3c(C)nn(-c4nc(C)cc(C)n4)c32)c1 (stereo unspecified) -29.7%, COc1ccccc1N(CC(=O)Nc1ccccc1F)S(C)(=O)=O -7.65% [at 11.5 µM], CCOc1ccc(-n2nc3cc(C)c(NC(=O)CC)cc3n2)cc1 -13% [at 11.5 µM], CCc1ccc(NC(=O)C(CC)n2nnc(C(=O)OC)c2C(=O)OC)cc1 (stereo unspecified) 28.8%, COc1ccc(C2NC(=O)c3c(sc4c3CCN(C)C4)N2)cc1O (stereo unspecified) 4.26%, CCN(CCCNC(=O)c1cc2c(=O)[nH]c3ccc(C)cc3c2s1)c1ccc(C)cc1 -18.8%, Cc1ccc(Cl)cc1N1CCN(S(=O)(=O)c2ccc3[nH]c4c(c3c2)CCCC4)CC1 -20%, CCOc1ccc2ccccc2c1C(=O)N[C@@H]1C(=O)N2[C@@H]1SC(C)(C)[C@@H]2C(=O)O 11.6%, Cc1cccc(N2CCN(C(=O)C3CCN(S(=O)(=O)c4cn(C)cn4)CC3)CC2)c1C -21.3%, CCCN1C(=O)c2ccccc2CC1(C)C(=O)NC1CCCCC1 (stereo unspecified) -24.2%, COc1ccccc1NC(=O)C1CCN(S(=O)(=O)c2ccc3c(c2)oc(=O)n3C)CC1 -13.4%, Cc1ccc(NC(=O)N2CCN(c3nnc(C)c4c(C)n(-c5ccccc5)nc34)CC2)cc1Cl -5.5%, CN(C)C/C=C(/c1ccc(Br)cc1)c1cccnc1 8.87%, O=C(NCc1ccc2c(c1)OCO2)c1ccc2c(c1)N(Cc1ccc(F)cc1)C(=O)c1ccccc1S2=O (stereo unspecified) -19.8%, Cc1ccc2nc(N(Cc3cccnc3)C(=O)c3ccc4c(c3)OCCO4)sc2c1 1.23%, CCN(c1ccc(Cl)cc1)S(=O)(=O)c1nnc(NC(=O)C2CCCCC2)s1 -25.3%, CCOCCc1nn2c(=O)cc(COC(=O)c3cccs3)nc2s1 26.9%, Cc1cc(C)cc(-n2c(SCC(=O)NCC3CCCO3)nc3c([nH]c4ccccc43)c2=O)c1 (stereo unspecified) 25.1%, CCOc1ccc(-c2cc(NC(=O)c3ccc(C)cc3)c(C(=O)OC)s2)cc1 12.9%, COc1ccc2c(c1)-c1nc(NC(=O)c3ccc(C)cc3)sc1CC2 -4.95%, Cn1cnc2c1c(=O)[nH]c(=O)n2C 10.6%, CCCC(=O)C1=C(c2ccc(C)c(C)c2)N(C(=O)CCC)n2c(CC)nnc2S1 -28.6%, COc1ccc(-c2noc(-c3ccc(NCCc4ccccc4)c([N+](=O)[O-])c3)n2)cc1OC -9.85%, O=C(Cn1ncc2c3ccccc3n(Cc3ccccc3)c2c1=O)Nc1ccccc1C(F)(F)F 0%, CC(C)c1ccc(NS(=O)(=O)c2ccc3[nH]cc(C(=O)N4CCCC4)c(=O)c3c2)cc1 7.55%, COc1cccc(CNC(=O)Cc2c(C)c3c(cc(C)c4c(C)coc43)oc2=O)c1 0.742%, CCOc1ccc(NC(=O)Nc2ccc3snnc3c2)cc1 -8.01%, CC(=O)N1CCC2(CC1)OC(=O)C(C)=C2C(=O)NCc1ccc(Cl)cc1 -5.04%, CCc1ccc(CNC(=O)c2ccc3nc(C(C)C)oc3c2)cc1 -2.88%, Cc1nn(-c2nc(-c3ccc(F)cc3)cc(C(F)(F)F)n2)c(C)c1Cl -28%, CC1=NN(c2ccccc2)C(=O)C1, COc1ccc(OC(C)c2nc3ccccc3[nH]2)cc1 (stereo unspecified) 14.7%
